According to PubChem BioAssay AID1508642 (National Center for Advancing Translational Sciences (NCATS), 2021):
Out of some 43,000 compounds screened, about 200 (0.47%) were called active. Inconclusive results (about 12%) are left out. Calls follow the shape of the dose curve; as a rule, active = well fitted cell-killing curve with a large enough effect; inconclusive = small, poorly fitted or top-dose-only effect, or effect the other way; inactive = flat fitted curve, though single readings scatter. The list shows a part of the results.

Test: Cell viability qHTS assay in S16 Pmp22-F2sN cells; also: nearly all actives have a fitted effect of over 65% in size
Conditions: S16 Pmp22-F2sN Schwann cells (luciferase reporters placed in the Pmp22 gene) viability, CellTiter-Glo, 24 h; series mostly up to 57.5 µM; activity change, negative = cytotoxicity: at the top concentration
Outline: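 Rat S16 Schwann reporter line, 24 h treatment with library compounds delivered at 23 nL per well. Cell viability by CellTiter-Glo luminescence.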
% is scaled to controls: 0 for no effect and ±100 for the full control effect.

| SMILES | activity change, negative = cytotoxicity |
| --- | --- |
| CC(=O)N1CCOc2cc(S(=O)(=O)NCc3ccc(C)cc3)c(C)cc21 | inactive: 5.5% |
| Cc1c(CNCc2ccc(OC(C)C)cc2)c(C(=O)O)c(C)n1Cc1ccc(Cl)cc1 | inactive: 4.98% |
| COc1ccc(N(C(=O)c2ccccc2F)S(=O)(=O)c2ccc3c(c2)n(C)c(=O)n3C)cc1 | inactive: -3.42% |
| COc1ccc(-c2cc(C(F)(F)F)nc(SCC(=O)N(C)Cc3ccccc3)n2)cc1OC | inactive: -30% |
| O=C(c1cc2ccc3cccnc3c2[nH]1)N1CCN(c2cccc(C(F)(F)F)c2)CC1 | inactive: -3.18% |
| COc1ccc2c(c1)c1c(c(=O)n(CCc3ccccc3)c(=O)n1Cc1ccccc1)n2C | inactive: -1.36% |
| Cc1ccc(C)c2sc(NC(=O)c3ccc(S(=O)(=O)N4CCCC4)cc3)nc12 | inactive: 0.511% |
| CCOC(=O)CSc1nc2sc3c(c2c(=O)n1Cc1ccccc1)CCC(C(C)(C)C)C3 (stereo unspecified) | inactive: 6.95% |
| COc1ccc(CNC(=O)c2c(Nc3ccc(OC)cc3OC)sc(C(=O)c3ccc(Cl)cc3)c2N)cc1 | inactive: -5.07% |
| CCN1c2ccccc2-c2nc(SCC(=O)Nc3cccc(C(F)(F)F)c3)ncc2S1(=O)=O | inactive: 2.81% |
| CCC(C)(C)NS(=O)(=O)c1cc(-c2cc(C)no2)ccc1C | inactive: -11.8% |
| COc1cc(O)ccc1C1CC(=O)Nc2c1c(=O)nc(SCc1ccccc1C)n2C (stereo unspecified) | inactive: -1.63% |
| Cc1ccc(C)c(CN2C(=O)c3ccccc3S(=O)c3ccc(C(=O)N4CCC(C)CC4)cc32)c1 (stereo unspecified) | inactive: 11.5% |
| COc1ccc(CNc2oc(-c3ccc(COc4ccc(Cl)cc4)o3)nc2C#N)cc1 | inactive: 3.57% |
| CCOC(=O)c1cccc(NC(=O)c2cc(S(=O)(=O)N3CCCCCC3)cn2C)c1 | inactive: -7.86% |
| COc1cccc(CNC(=O)CNS(=O)(=O)c2ccc3nc(C)sc3c2)c1 | inactive: 1.84% |
| COc1cc(NC(=O)CSc2nc3ccccc3nc2Cc2ccccc2OC)cc(OC)c1 | inactive: -8.97% |
| Cc1nn2c(C)c(C(=O)N3CCN(c4ccccc4)CC3)cnc2c1-c1ccccc1 | inactive: -0.213% |
| Cc1ccc(CCNC(=O)c2cc3c(=O)oc4ccccc4c3s2)cc1 | inactive: -5.55% |
| COc1ccccc1OCCn1c(COc2cc(C)ccc2C)nc2ccccc21 | inactive: 12.7% |
| CCN(CC)S(=O)(=O)c1nnc(NC(=O)c2ccccc2Cl)s1 | inactive: -8.57% |

| SMILES | activity change, negative = cytotoxicity |
| --- | --- |
| CC(C)CNc1nc(NC(C)(C)C)nc(Oc2ccc(=O)n(-c3ccccc3)n2)n1 | inactive: -6.42% |
| COc1cc(OC)cc(C(=O)Nc2ccc3oc(-c4ccccc4C)nc3c2)c1 | inactive: 1.77% |
| CCC(=O)Nc1ccc(C)cc1-c1nc2ccccc2n(CC(=O)Nc2ccccc2Cl)c1=O | inactive: 3.79% |
| COc1ccc(NC(=O)Cn2c(=O)n(CC3CCCO3)c(=O)c3ccccc32)c(OC)c1 (stereo unspecified) | inactive: 8.4% |
| COc1cc(C2c3c(oc4ccc(F)cc4c3=O)C(=O)N2c2nc(C)c(C)s2)cc(OC)c1OC (stereo unspecified) | inactive: -9.85% |
| COc1ccc(C)cc1NC(=O)COCc1cc(-c2cccs2)on1 | inactive: -3.12% |
| CCOc1ccc(NC(=O)CSc2nc3c(c(=O)[nH]2)CCCC3)cc1 | inactive: -7.05% |
| COc1ccc(CCNC(=O)CCCn2c(=O)c3ccccc3n(Cc3ccc(C)cc3)c2=O)cc1OC | inactive: 15.9% |
| Cc1ccc2ncc(C(=O)NCCc3ccc(S(N)(=O)=O)cc3)c(=O)n2c1 | inactive: -1.33% |
| COc1ccc2nc(N(Cc3cccnc3)C(=O)C3COc4ccccc4O3)sc2c1 (stereo unspecified) | inactive: 3.97% |
| CCCN(C(=O)c1cn(C)c(=O)c2ccccc12)c1ccccc1C | inactive: 1.94% |
| CCOc1ccccc1C(=O)N(Cc1cc(OC)c(OC)c(OC)c1)C1CCS(=O)(=O)C1 (stereo unspecified) | inactive: 1.92% |
| O=C(CN1CCSc2ccccc21)NCc1ccccc1F | inactive: 4.85% |
| Cc1nc(CC(=O)Nc2cc(Cl)ccc2C)cs1 | inactive: 5.43% |
| COc1cc(C)ccc1OCCSc1nc(-c2cccc(C)c2)nc2cc(=O)[nH]n12 | inactive: -23.5% |
| COc1ccc(N2CCN(S(=O)(=O)CCNC(=O)C3CC(=O)N(c4ccccc4)C3)CC2)cc1 (stereo unspecified) | inactive: 3.31% |
| CCCOc1ccc(CN(C(=O)c2cc(=O)c3ccc(C)cc3o2)C2CCS(=O)(=O)C2)cc1 (stereo unspecified) | inactive: -10.5% |
| COc1ccc(CCNC(=O)c2cc(C)nc3c2c(C)nn3-c2ccc(C)cc2)cc1OC | inactive: 4.47% |
| CCN(CC)CCCNC(=O)c1ccc2nc(N3CCCCC3)sc2c1 | inactive: 3.18% |
| CCNC(=O)c1ccc2nc(CCc3ccccc3)oc2c1 | inactive: 12.1% |
| Cc1ccccc1NS(=O)(=O)c1ccc2[nH]cc(C(=O)NC(C)c3ccccc3)c(=O)c2c1 (stereo unspecified) | inactive: -1.75% |

| SMILES | activity change, negative = cytotoxicity |
| --- | --- |
| COc1ccccc1C(=O)Nc1nc2nc(-c3ccccc3)cc(=O)n2[nH]1 | inactive: -1.28% |
| CCc1nn2c(=O)cc(COC(=O)c3ccc(NC(=O)c4cccs4)cc3)nc2s1 | inactive: 4.03% |
| Cc1ccc(C)c(CNC(=O)C2CCN(c3nc4ccccc4nc3C(F)(F)F)CC2)c1 | inactive: 28.6% |
| CCOc1ccccc1CNC(=O)Cn1ncn2nc(-c3cccs3)cc2c1=O | inactive: -0.145% |
| COc1ccc(Nc2nnc(-c3cc4c(ccc5ccccc54)oc3=O)s2)cc1 | inactive: 12.3% |
| COc1ccccc1CCNC(=O)C(=O)NCC(c1cccs1)S(=O)(=O)c1ccc(C)cc1 (stereo unspecified) | inactive: -2.9% |
| CC(=O)N1CCCC1c1nc2ccccc2n1Cc1cccc(Cl)c1 (stereo unspecified) | inactive: 3.37% |
| CCc1ccc(CNC(=O)COc2cc(=O)n(CC)c3ccccc23)cc1 | inactive: -15.3% |
| COC(=O)c1c(NC(=O)c2nc(SCc3cccc(C)c3)ncc2Cl)sc2c1CCCC2 | inactive: -2.14% |
| COc1ccc(-n2nnc(-c3nc(-c4cccs4)no3)c2N)cc1OC | inactive: 3% |
| CC1=C(c2ccc(F)cc2)S(=O)(=O)NC1=NCc1ccccc1F | inactive: -4.55% |
| COc1ccc(-c2nc(C)c(CCNC(=O)C(=O)Nc3ccccc3C#N)s2)cc1OC | inactive: 26.9% |
| Cc1ccc(-c2noc(-c3ccc(NCc4ccco4)c([N+](=O)[O-])c3)n2)cc1 | inactive: 14.5% |
| COc1cc(NC(=O)CC(c2ccc(C)cc2)N2Cc3ccccc3C2=O)cc(OC)c1 (stereo unspecified) | inactive: 1.23% |
| COc1ccc(NS(=O)(=O)c2cc3c(cc2C)NC(=O)CO3)c(OC)c1 | inactive: 3.98% |
| O=C(CSC1=Nc2ccccc2C2=NC(Cc3ccccc3)C(=O)N12)Nc1ccccc1C(F)(F)F (stereo unspecified) | inactive: -1.61% |
| COc1cc(NC(=O)C2CCN(S(=O)(=O)c3ccc4c(c3)oc(=O)n4C)CC2)cc(OC)c1 | inactive: 3.67% |
| Cc1noc(-c2ccc(N3CCC(C)CC3)c([N+](=O)[O-])c2)n1 | inactive: -4.82% |
| CCOc1ccc(CN2C(=O)c3ccccc3Sc3ccc(C(=O)NC)cc32)cc1 | inactive: -1.76% |
